# Reference: the supplement of paper PMC9446081
# Among all 39,000 compounds or so, about 220 (0.56%) showed activity. The list shows a part of the results.
# Test system: Escherichia coli K-12 BW25113
# Assay: relative growth (OD600 normalised to plate interquartile mean) (fraction); higher = less growth inhibition, active = 0.2 or less
# Conditions: 50 µM; LB; incubation time: overnight (16-24 h)
# 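Note: static incubation at 37 °C against the wild-type strain, values averaged over two biological replicates.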
row,SMILES,relative growth
1,C=CC(=O)NC(C)(C)CCN1CCOCC1,inactive: 0.994
2,C[C@@H]1CCCCO[C@H](CN(C)C(=O)Nc2ccccc2)[C@@H](C)CN([C@@H](C)CO)C(=O)c2cc(NS(=O)(=O)c3ccc(Cl)cc3)ccc2O1,inactive: 1.06
3,C[C@H]1CCCCO[C@@H](CN(C)Cc2ccc(C(F)(F)F)cc2)[C@@H](C)CN([C@@H](C)CO)C(=O)c2cc(NC(=O)C3CCCCC3)ccc2O1,inactive: 0.991
4,CCN1C(=O)CS/C1=N\N1CCOCC1,inactive: 0.997
5,C[C@H](CO)N1C[C@H](C)[C@@H](CN(C)C(=O)c2cc(-c3ccccc3)on2)OCc2cnnn2CCCC1=O,inactive: 0.992
6,C[C@@H]1CCCCO[C@@H](CN(C)CC2CCCCC2)[C@@H](C)CN([C@@H](C)CO)C(=O)c2cc(NC(=O)NC3CCCCC3)ccc2O1,inactive: 1.02
7,CO[C@@H](CN(C)S(=O)(=O)c1ccc(C)cc1)[C@H](C)CN([C@H](C)CO)S(=O)(=O)c1cccc(Cl)c1,inactive: 1.01
8,C[C@H]1CCCCO[C@H](CN(C)C(=O)Nc2ccc3c(c2)OCO3)[C@@H](C)CN([C@@H](C)CO)C(=O)c2cc(NS(=O)(=O)c3ccccc3)ccc2O1,inactive: 1.01
9,COc1ccc(NC(=O)Nc2ccc3c(c2)C(=O)N([C@H](C)CO)C[C@H](C)[C@@H](CN(C)Cc2ccncc2)OCCCC[C@@H](C)O3)cc1,inactive: 0.983
10,NCc1cccc(Cl)c1,inactive: 1.03
11,C[C@@H]1CN([C@@H](C)CO)C(=O)Cc2cc(NC(=O)Cc3cn(C)c4ccccc34)ccc2O[C@H]1CN(C)Cc1ccc(C(=O)Nc2ccccc2N)cc1,inactive: 0.988
12,COc1ccc(S(=O)(=O)Nc2ccc3c(c2)C(=O)N([C@H](C)CO)C[C@H](C)[C@@H](CN(C)S(=O)(=O)c2ccc(Cl)cc2)OCCCC[C@@H](C)O3)cc1,inactive: 1.01
13,COCCNC(=O)C[C@H]1CC[C@@H]2[C@H](COC[C@H](O)CN2S(=O)(=O)c2ccccc2C)O1,inactive: 1.01
14,O=C(O)C[C@@H](C(=O)O)[C@H](O)c1ccccc1,inactive: 1.01
15,CNC1CCC(c2ccc(Cl)c(Cl)c2)c2ccccc21.Cl (configuration not stated),inactive: 0.261
16,C[C@@H]1CCCCO[C@H](CN(C)S(=O)(=O)c2cn(C)cn2)[C@H](C)CN([C@H](C)CO)C(=O)c2cc(NS(C)(=O)=O)ccc2O1,inactive: 1.02
17,C[C@H](CO)N1C[C@H](C)[C@@H](CN(C)CC2CCCCC2)OCCCC[C@H](C)Oc2ccc(NC(=O)C3CCCCC3)cc2C1=O,inactive: 0.985
18,C[C@H](CO)N1C[C@H](C)[C@H](CN(C)C(=O)C2CCCCC2)OCCCC[C@H](C)Oc2ccc(NC(=O)Nc3ccc(F)cc3)cc2C1=O,inactive: 1.02
19,CCC(C(C)O)n1ncn(-c2ccc(N3CCN(c4ccc(OCC5COC(Cn6cncn6)(c6ccc(F)cc6F)C5)cc4)CC3)cc2)c1=O (configuration not stated),inactive: 0.947
20,C[C@H](CO)N1C[C@H](C)[C@H](CN(C)Cc2ccncc2)Oc2ccc(NC(=O)c3ccncc3)cc2CC1=O,inactive: 1.03
21,C[C@H]1CN([C@@H](C)CO)C(=O)Cc2cc(NS(=O)(=O)c3cn(C)cn3)ccc2O[C@@H]1CN(C)S(=O)(=O)c1ccccc1,inactive: 1.02

row,SMILES,relative growth
1,COc1ccc(NC(=O)Nc2ccc3c(c2)C(=O)N([C@H](C)CO)C[C@@H](C)[C@@H](CN(C)S(=O)(=O)c2ccc(F)cc2)OCCCC[C@H](C)O3)cc1,inactive: 1.03
2,COc1ccc(CN(C)C[C@@H]2Oc3c(NC(=O)Nc4cccc5ccccc45)cccc3C(=O)N([C@H](C)CO)C[C@@H]2C)cc1,inactive: 1.02
3,C[C@H](CO)N1C[C@H](C)[C@H](CN(C)S(=O)(=O)c2ccccc2)Oc2ccc(NC(=O)CCC(F)(F)F)cc2CC1=O,inactive: 0.999
4,COCC#Cc1cnc2c(c1)C(=O)N([C@@H](C)CO)C[C@@H](C)[C@@H](CN(C)C(=O)CN1CCOCC1)O2,inactive: 1.01
5,Cc1ccc(S(=O)(=O)Nc2ccc3c(c2)CC(=O)N([C@H](C)CO)C[C@@H](C)[C@@H](CN(C)S(C)(=O)=O)O3)cc1,inactive: 0.986
6,COc1ccc(-c2cnc3c(c2)C(=O)N([C@@H](C)CO)C[C@H](C)[C@H](CN(C)C(=O)C2CCOCC2)O3)cc1,inactive: 1
7,O=C(C1=C[C@H](c2ccc3c(c2)Cc2ccccc2-3)C[C@H](OCc2ccc(CO)cc2)O1)N1CCN(Cc2ccc3c(c2)OCO3)CC1,inactive: 1.01
8,CC(C)NC(=O)N(C)C[C@@H]1OCCCC[C@H](C)Oc2ccc(NC(=O)Nc3ccc(C(F)(F)F)cc3)cc2C(=O)N([C@@H](C)CO)C[C@@H]1C,inactive: 0.995
9,COC(=O)c1nnc(N)[nH]1,inactive: 0.994
10,C[C@@H]1CCCCO[C@H](CN(C)S(=O)(=O)c2ccc(F)cc2)[C@H](C)CN([C@H](C)CO)C(=O)c2cc(NS(=O)(=O)c3cn(C)cn3)ccc2O1,inactive: 0.984
11,CO[C@H]1CN(C)C(=O)c2cc(NS(=O)(=O)c3ccccc3C)ccc2OC[C@H](C)N(S(C)(=O)=O)C[C@H]1C,inactive: 0.984
12,C[C@H](CO)N1C[C@H](C)[C@@H](CN(C)Cc2ccncc2)Oc2ccc(NC(=O)CCCN(C)C)cc2CC1=O,inactive: 0.956
13,C[C@@H]1CN([C@H](C)CO)C(=O)c2cc(NC(=O)Nc3ccccc3)ccc2O[C@@H](C)CCCCO[C@@H]1CN(C)Cc1ccccc1,inactive: 0.964
14,CCC(=O)c1ccc(C)s1,inactive: 0.983
15,C[C@@H]1CN([C@H](C)CO)C(=O)c2cccc(NC(=O)Nc3ccc(F)cc3)c2O[C@@H]1CN(C)CC1CCCCC1,inactive: 0.976
16,COc1ccc(S(=O)(=O)N(C)C[C@H]2Oc3ccc(NC(=O)C4CC4)cc3CC(=O)N([C@@H](C)CO)C[C@H]2C)cc1,inactive: 1
17,C[C@H](CO)N1C[C@H](C)[C@H](CN(C)C(=O)Nc2cccc3ccccc23)Oc2ccc(NC(=O)Cc3cn(C)c4ccccc34)cc2C1=O,inactive: 1.01
18,C[C@@H]1CCCCO[C@H](CN(C)Cc2ccncc2)[C@@H](C)CN([C@@H](C)CO)C(=O)c2cc(NC(=O)c3ccccc3)ccc2O1,inactive: 0.958
19,C[C@H]1CN([C@@H](C)CO)C(=O)Cc2cc(NC(=O)Nc3ccc(C(F)(F)F)cc3)ccc2O[C@H]1CN(C)C(=O)Nc1ccc(C(F)(F)F)cc1,inactive: 1.01
20,Cc1noc(C)c1NC(=O)N(C)C[C@H]1Oc2ccc(NC(=O)Nc3cccc4ccccc34)cc2CC(=O)N([C@@H](C)CO)C[C@H]1C,inactive: 1
21,C[C@H]1CN([C@@H](C)CO)C(=O)c2cccc(NC(=O)NC3CCCCC3)c2O[C@@H]1CN(C)Cc1ccc(Oc2ccccc2)cc1,inactive: 0.952

row,SMILES,relative growth
1,COc1cc2c(NC3CCN(C(C)C)CC3)nc(N3CCC(F)(F)CC3)nc2cc1OCCCN1CCCC1,inactive: 0.976
2,C[C@@H]1CN([C@H](C)CO)C(=O)c2cc(NC(=O)NC3CCCCC3)ccc2O[C@@H]1CN(C)S(=O)(=O)c1cn(C)cn1,inactive: 0.984
3,C[C@H](CO)N1C[C@H](C)[C@@H](CN(C)S(=O)(=O)c2ccc(C#N)cc2)OCc2cn(nn2)CCCC1=O,inactive: 0.942
4,COc1cccc(C(=O)NCC(=O)O)c1,inactive: 1.04
5,C[C@@H]1CN([C@H](C)CO)C(=O)c2cc(NC(=O)C3CC3)ccc2O[C@H]1CN(C)Cc1ccc(Oc2ccccc2)cc1,inactive: 0.89
6,Cc1ccc(OC(=O)N(C)C[C@@H]2OCc3ccccc3-c3ccccc3C(=O)N([C@@H](C)CO)C[C@@H]2C)cc1,inactive: 1.01
7,CC1OC(n2cc(F)c(=O)[nH]c2=O)C(O)C1O (configuration not stated),inactive: 1
8,COc1ccc(NC(=O)Nc2ccc3c(c2)C(=O)N([C@@H](C)CO)C[C@@H](C)[C@H](CN(C)CC2CCCCC2)OCCCC[C@@H](C)O3)cc1,inactive: 0.971
9,O=c1cc(-c2ccccc2O)oc2cc(O)ccc12,inactive: 1.08
10,C[C@@H]1CN([C@@H](C)CO)C(=O)Cc2cc(NC(=O)Cc3ccccc3)ccc2O[C@@H]1CN(C)S(=O)(=O)c1ccccc1,inactive: 1.01
11,C[C@H]1CN([C@@H](C)CO)C(=O)c2c(c3ccccc3n2C)-c2ccccc2CO[C@@H]1CN(C)Cc1cccc(O)c1,inactive: 1
12,C[C@H](CO)N1C[C@H](C)[C@H](CN(C)S(=O)(=O)c2cn(C)cn2)Oc2ccc(NS(C)(=O)=O)cc2CC1=O,inactive: 0.993
13,C[C@H](CO)N1C[C@H](C)[C@@H](CN(C)S(=O)(=O)c2cn(C)cn2)Oc2ccc(NC(=O)Nc3ccccc3)cc2CC1=O,inactive: 0.955
14,CC(O)(CN)C1CC1 (configuration not stated),inactive: 1.01
15,O=C(C[C@@H]1C=C[C@H](NC(=O)Nc2ccc3c(c2)OCO3)[C@H](CO)O1)NCCCN1CCOCC1,inactive: 1.03
16,Cc1ccc(S(=O)(=O)N[C@H]2CC[C@H](CCNC(=O)CN3CCOCC3)O[C@H]2CO)cc1,inactive: 0.979
17,C[C@H]1CN([C@@H](C)CO)C(=O)Cc2cc(NC(=O)Nc3ccccc3)ccc2O[C@H]1CN(C)Cc1ccc(Cl)c(Cl)c1,inactive: 0.978
18,C[C@@H]1CN([C@H](C)CO)C(=O)c2cc(NS(=O)(=O)c3cn(C)cn3)ccc2O[C@H]1CN(C)S(=O)(=O)c1ccc(Cl)cc1,inactive: 1
19,COc1cc(CCC(=O)O)oc(=O)c1,inactive: 0.969
20,COc1oc(C(=O)NC2CCCCC2)c(-c2ccc(Cl)cc2)c1S(=O)(=O)/C=C/c1ccccc1,inactive: 0.875
